Data published in PubChem BioAssay AID686979 (National Center for Advancing Translational Sciences (NCATS), 2013).
Several values for one entry are separate records, joined by “and”; a condition that tells them apart may be missing. Equal values may be shown once. In all, about 420,000 compounds went through this assay and about 50,000 (12%) were called active. Inconclusive means that the source gave no clear call. Such entries were picked first, then a sample of the others. Calls follow the shape of the dose curve; as a rule, active = well fitted inhibition curve with a large enough effect; inconclusive = small, poorly fitted or top-dose-only effect; inactive = flat fitted curve, though single readings scatter. A potency beside an inconclusive call is a rough fit, not a confirmed value.

Assay: qHTS for Inhibitors of human tyrosyl-DNA phosphodiesterase 1 (TDP1): qHTS in cells in presence of CPT; also: nearly all actives have a fitted effect of over 55% in size
Conditions: chicken DT40 Tdp1-/-;hTDP1 cells + 20 nM CPT, ATP luminescence, 48 h; activity change, negative = growth inhibition: at 46.2 µM (top of the series) unless noted
Outline: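 Chicken DT40 Tdp1-/- cells complemented with human TDP1, 400 cells/well, exposed to compounds plus 20 nM camptothecin for at least 48 h at 37 C; viability read as ATP content by CellTiter-Glo luminescence.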
% is scaled to controls: 0 for no effect and ±100 for the full control effect; potency is read from the fitted curve at half-maximal effect; tags tell the direction and shape of the fitted curve.

Structure (SMILES)	Potency	activity change, negative = growth inhibition
Cc1cc(C)c(NC(=O)Cn2c(=O)n(Cc3ccco3)c(=O)c3ccc(C(=O)NC4CCCC4)cc32)c(C)c1	inconclusive: 4.11 µM [inhibitor, partial curve]	–
COC(=O)CCc1sc(Nc2ccccc2)nc1-c1ccc(OC)cc1	inconclusive: 25.9 µM [inhibitor, single point]	–
CC(C)CC(=O)c1c[nH]c(C(=O)N2CCN(Cc3ccccc3)CC2)c1	inactive	–
Fc1ccc(-c2cn3ccccc3n2)cc1	inactive	–
O=C(NCC(c1cccnc1)N1CCc2ccccc2C1)C(=O)Nc1ccc(Cl)cc1 (stereo not drawn)	active: 11.6 µM	–
O=C(CNC(=O)c1ccco1)Nc1cc(Cl)ccc1N1CCOCC1	inactive	–
Cc1ccc(-c2noc(CSc3nnc(Cc4ccccc4)n3-c3cccc(C)c3)n2)cc1	inconclusive: 23.1 µM [inhibitor, single point] and inconclusive: 20.6 µM [inhibitor, single point]	–
Cc1ccccc1OCC(O)CN1CCC(C)CC1 (stereo not drawn)	inactive	–
CCOc1ccc(OCCCC(=O)N2CCN(S(=O)(=O)c3ccc(Cl)cc3)CC2)cc1	inconclusive: 20.6 µM [inhibitor, single point]	–
Cc1ccc2c(c1)N(CC(=O)NCc1ccccc1Br)C(=O)c1cccnc1O2	inconclusive: 16.4 µM [inhibitor, partial curve, poor fit]	–
COc1ccc(OCC2CCCN(Cc3nc(CC4CC4)no3)C2)cc1 (stereo not drawn)	inactive	–
COc1cc(/C=N/n2c(SC)nnc(C(C)(C)C)c2=O)ccc1O	inactive	–
COc1ccc(C(=O)N2CCN(C(=O)c3ccco3)CC2)cc1	inactive	–
CCC1(c2ccccc2)NC(=O)N(CC(=O)Nc2ccccc2N2CCCCC2)C1=O (stereo not drawn)	inconclusive: 25.9 µM [inhibitor, single point]	–
CC(=O)c1ccc(N/N=C(/C(N)=O)C2=NC(C)(C)Cc3ccccc32)cc1	active: 11.6 µM	–
COc1ccccc1N1CCN(C(=O)COc2cc(C)cc3oc(=O)cc(C)c23)CC1	active: 16.4 µM	–
Cc1cc(/C=N/NC(=O)c2cccc([N+](=O)[O-])c2)c(C)n1-c1ccccc1	inconclusive: 18.4 µM [inhibitor, single point]	–
CCCc1nc2ccccc2n2c(-c3ccc(C)cc3)c3c(=O)n(C)c(=O)n(C)c3c12	active: 23.1 µM	–
CCOC(=O)c1sc(NC(=O)c2cccs2)cc1C	inconclusive: 16.4 µM [inhibitor, partial curve]	–
Cc1c2ccncc2cc2c1[nH]c1ccccc12	active: 5.8 µM	–
Cc1ccccc1CN1CCN(CC2CC2)CC1CCO (stereo not drawn)	inactive	–
Cc1ccc(OCC(=O)Nc2ccc(S(=O)(=O)Nc3cc(C)nc(C)n3)cc2)c(C)c1	inactive	–
CCSc1ncc(Cl)c(C(=O)Nc2c(C(=O)c3ccc(C)c(F)c3)oc3ccccc23)n1	inactive	–
O=C(CSS(=O)(=O)O)N1CCN(C(=O)c2ccoc2)CC1	inactive	–

Structure (SMILES)	Potency	activity change, negative = growth inhibition
C[N+](C)(CCOc1ccccc1)Cc1cccs1	inactive	–
Fc1ccc(C2Nc3cccc4cccc(c34)N2)cc1	inconclusive: 29.1 µM [inhibitor, single point]	–
Cn1cnc([N+](=O)[O-])c1Sc1nnc(-c2cccnc2)n1C	inconclusive: 18.4 µM [inhibitor, single point]	–
Cc1cccc(C(=O)NC(=S)Nc2ccccc2C(F)(F)F)c1	inconclusive: 29.1 µM [inhibitor, single point]	–
CCOCCCNC(=O)C(c1ccc(C)cc1)N(Cc1cccs1)C(=O)c1ccc(NC(C)=O)cc1 (stereo not drawn)	active: 20.6 µM	–
COc1ccccc1N=NNc1ccccc1OC	inconclusive: 9.2 µM [inhibitor, partial curve]	–
O=C(Oc1cc(=O)n2ccccc2n1)c1ccccc1	inactive	–
CCOC(=O)C(=CNc1ccc(Oc2cncc(Cl)c2)nc1)C(=O)OCC	inactive	–
CC1(C)CSC(=NCCc2ccccc2)N1	inactive	–
O=C1Nc2cc(C(=O)N3CCC(N4CCCCC4)CC3)ccc2S/C1=C\c1ccccc1	inconclusive: 25.9 µM [inhibitor, single point]	–
CCOc1ccc(N2C(=O)CC(Sc3n[nH]c(-c4ccccc4)n3)C2=O)cc1 (stereo not drawn)	active: 7.31 µM	–
CC(=O)Nc1cc(-c2ccc(C(=O)N3CCOCC3)cc2)cn2c(-c3ccc(S(C)(=O)=O)cc3)cnc12	active: 16.4 µM	–
CC(=O)c1ccc(NC(=O)c2sc3nc(N4CCOCC4)c4c(c3c2N)CCCC4)cc1	inconclusive: 9.2 µM [inhibitor, partial curve]	–
Cc1ccc(NC(=O)Cn2c(=O)n(CCc3ccccc3)c(=O)c3c4c(sc32)CCCC4)c(C)c1	inactive	–
COC(=O)C1=NN(N=O)C2(CC(=O)N(c3cc(C)cc(C)c3)C2=O)C1 (stereo not drawn)	inconclusive: 4.11 µM [inhibitor, single point]	–
COc1ccc(S(=O)(=O)Cc2ccc(C(=O)N3CCN(c4cccc(C)c4)C(C)C3)o2)cc1 (stereo not drawn)	active: 5.17 µM	–
CCOc1ccc(NC(=O)CCC(=O)NNC(=O)Nc2ccc(Cl)cc2)cc1	inactive	–
COc1ccccc1-c1ccc(SCc2ccc(C)cc2)nn1	–	inconclusive: -33.2% [inhibitor]
COc1ccc([N+](=O)[O-])cc1N(CC(=O)NCc1ccco1)S(C)(=O)=O	inactive	–
COc1cccc(-c2cnc3c(NC=O)cc(-c4cccc(C(=O)N(C)C)c4)cn23)c1	inconclusive: 29.1 µM [inhibitor, partial curve, poor fit]	–
CCc1cccc(NS(=O)(=O)c2c(C)nc3sc(CC)nn3c2=O)c1	inconclusive: 16.4 µM [inhibitor, partial curve] and inconclusive: 29.1 µM [inhibitor, single point]	–
COc1ccc(N2CC(NC(=O)c3cc4ccccc4o3)CC2=O)cc1OC (stereo not drawn)	inconclusive: 23.1 µM [inhibitor, partial curve, poor fit]	–
COc1ccc(NC(=O)C2Cc3c(-c4cccc(C(C)=O)c4)ccnc3O2)cc1 (stereo not drawn)	active: 2.31 µM	–
COc1ccc(N(Cc2ccccc2)S(=O)(=O)c2cccc(C(=O)Nc3ncccc3C)c2)cc1	inconclusive: 29.1 µM [inhibitor, single point]	–
